Measured values published in paper PMC12135187, “A role for pH dynamics regulating transcription factor DNA-binding selectivity”.
The other results are listed elsewhere or left out.

Biological target: T1, FOXC2 DBD WT (UniProt Q99958 72-172)
T1 sequence: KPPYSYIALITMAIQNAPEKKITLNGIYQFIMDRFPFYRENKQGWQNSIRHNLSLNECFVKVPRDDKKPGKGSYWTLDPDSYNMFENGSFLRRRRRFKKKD
Assay: SELEX-seq (GST pull-down, four rounds, 16-nt random library); pH 7.0; 20 mM HEPES, 140 mM KCl, 0.05 mM TCEP-HCl, pH 7.0, room temperature, 30 min; 2.5 uM GST-FOXC2 DBD, 0.25 uM DNA library; high values mean tight binding
Conditions: protein: recombinant; tags: N-terminal GST (pGEX-6P-2); dsDNA, one strand shown
Method in brief: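 GST-tagged FOXC2 DNA-binding domain (E. coli-expressed, glutathione-purified) was incubated with a DNA library carrying a 16 bp randomized region, at 0.25 μM DNA and 2.5 μM protein, for 30 min at RT in 20 mM HEPES, 140 mM KCl, 0.05 mM TCEP–HCl, pH 7. Complexes were captured on glutathione Sepharose beads, washed, heat-eluted and PCR-amplified over four rounds. Initial and selected libraries were Illumina MiniSeq sequenced. Relative enrichment came from the Bioconductor SELEX R package.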

| Sequence | binding signal [relative enrichment] |
| --- | --- |
| AATGAA | 0.36 |
| ACTCAG | 0.492 |
| ATTTTA | 0.263 |
| CCCATA | 0.344 |
| ATATGG | 0.339 |
| ATCAAG | 0.369 |
| AAGAAA | 0.396 |
| CACCTA | 0.417 |
| AAGCAC | 0.477 |
| CAATTG | 0.24 |
| AAAGCA | 0.341 |
| GTACTA | 0.465 |
| ATCATA | 0.38 |
| ACACAG | 0.297 |
| CTCCAT | 0.483 |
| ACTTTC | 0.481 |
| AGGATA | 0.311 |
| ATAATC | 0.482 |
| ACTTCT | 0.502 |
| TTCCTT | 0.344 |
| CTCTTA | 0.325 |
| TACTCA | 0.389 |
| AAATGC | 0.33 |
| TCCTAA | 0.348 |
| CACATG | 0.281 |
| TACCGT | 0.442 |

| Sequence | binding signal [relative enrichment] |
| --- | --- |
| CTATAA | 0.283 |
| GATTAA | 0.448 |
| CATGTC | 0.418 |
| AACGCC | 0.493 |
| ACTTAG | 0.415 |
| GGTATA | 0.303 |
| TCACAA | 0.332 |
| CTATCT | 0.402 |
| CCGTAA | 0.415 |
| ATCATC | 0.492 |
| TTTCTC | 0.368 |
| AATTTC | 0.416 |
| AACAAC | 0.24 |
| TAATAA | 0.399 |
| TGTCCA | 0.348 |
| AGAATG | 0.543 |
| CGTGTA | 0.412 |
| TATAGA | 0.295 |
| ACAGGA | 0.332 |
| GATTAC | 0.363 |
| AACGGA | 0.309 |
| ATGCAT | 0.421 |
| TAACCC | 0.318 |
| CAAATC | 0.3 |
| TAAAAA | 0.261 |
| AAATCC | 0.354 |

| Sequence | binding signal [relative enrichment] |
| --- | --- |
| ACAAAT | 0.442 |
| AAATGA | 0.271 |
| ATTATC | 0.317 |
| CTAAAC | 0.375 |
| AACTAT | 0.324 |
| GTTTTA | 0.241 |
| AAATAA | 0.891 |
| CATCCT | 0.605 |
| CCATCA | 0.645 |
| TGATCA | 0.457 |
| TTCCTG | 0.394 |
| AACGTC | 0.372 |
| TAGACA | 0.44 |
| CAAACG | 0.325 |
| ACGTCT | 0.549 |
| ATTGCA | 0.322 |
| CAATTA | 0.295 |
| CTTAAG | 0.341 |
| AAACCA | 0.353 |
| CCCAAA | 0.472 |
| AATCTC | 0.43 |
| GATGCT | 0.63 |
| CGTAAA | 0.481 |
| AATAAA | 0.839 |
| ATAGAC | 0.461 |
| AACAGT | 0.313 |

| Sequence | binding signal [relative enrichment] |
| --- | --- |
| CCTATG | 0.396 |
| GATTGC | 0.423 |
| AACGTA | 0.337 |
| CCAACT | 0.341 |
| CTACAA | 0.352 |
| CCTACT | 0.648 |
| ATACCC | 0.549 |
| CTTAGA | 0.52 |
| GATTTA | 0.323 |
| ACTCCA | 0.477 |
| AGCATG | 0.514 |
| AGATAT | 0.386 |
| CTATGA | 0.45 |
| AAAAGA | 0.251 |
| CTTCTT | 0.546 |
| ATATCC | 0.317 |
| ATCCTA | 0.563 |
| ACATAG | 0.364 |
| GTCATA | 0.306 |
| ACAATA | 0.351 |
| CCATAA | 0.412 |
| TAGTCA | 0.442 |
| ATTAGA | 0.372 |
| AAAACA | 0.264 |
| TACCAA | 0.41 |
| ATGTGA | 0.334 |

| Sequence | binding signal [relative enrichment] |
| --- | --- |
| GCAAAA | 0.207 |
| ATGTAA | 0.258 |
| ATGTTA | 0.428 |
| TCCACA | 0.483 |
| ATCGAA | 0.405 |
| AAAGTT | 0.3 |
| ACACCC | 0.429 |
| TCGGTT | 0.326 |
| ATGACA | 0.288 |
| CTTCTA | 0.588 |
| ATTCTA | 0.466 |
| AAACCT | 0.289 |
| AGGTTA | 0.238 |
| AAGTTA | 0.225 |
| CAAAGA | 0.341 |
| TTCCAA | 0.344 |
| AGTCAT | 0.491 |
| TCCTTT | 0.307 |
| CCTCTG | 0.61 |
| ACTATC | 0.412 |
| CGATTA | 0.41 |
| AGTTCA | 0.419 |
| AGTCAA | 0.416 |
| GCCAAA | 0.402 |
| TGAACA | 0.291 |
| AACTTC | 0.432 |

| Sequence | binding signal [relative enrichment] |
| --- | --- |
| CAAGCA | 0.489 |
| AAATGT | 0.266 |
| ACGACT | 0.561 |
| ACACAC | 0.34 |
| CAACGA | 0.38 |
| ATACAT | 0.349 |
| ATCCAT | 0.477 |
| ATTACG | 0.417 |
| CACCTG | 0.535 |
| AAATGG | 0.353 |
| AAACAA | 0.46 |
| CTATTA | 0.334 |
| TTATAA | 0.214 |
| CTTTCA | 0.425 |
| ACAAGC | 0.428 |
| TATCCC | 0.399 |
| AATATT | 0.661 |
| TGGTAA | 0.428 |
| ACTGCA | 0.407 |
| ATCTTG | 0.318 |
| AACTGC | 0.311 |
| ATACTG | 0.315 |
| ACATGC | 0.453 |
| TACTAA | 0.382 |
| CCAATA | 0.297 |
| AGTATG | 0.448 |

| Sequence | binding signal [relative enrichment] |
| --- | --- |
| CTTTAC | 0.315 |
| ATGATA | 0.355 |
| ACACAT | 0.268 |
| CAACTG | 0.279 |
| ACAGAC | 0.349 |
| CTTACT | 0.518 |
| ACACTA | 0.332 |
| CATACA | 0.446 |
| CGTATA | 0.282 |
| AAATAC | 0.444 |
| AACCTC | 0.374 |
| ACACCG | 0.516 |
| ATAGTC | 0.461 |
| AACGAT | 0.256 |
| AACACA | 0.372 |
| CACCTT | 0.48 |
| ATCCAC | 0.528 |
| AGTCTA | 0.54 |
| ACAACC | 0.38 |
| ACCGCT | 0.499 |
| AACAGC | 0.298 |
| GGAAAA | 0.325 |
| CAACAC | 0.329 |
| AAATAT | 0.435 |
| AGATTG | 0.338 |
| CTTAAA | 0.401 |

| Sequence | binding signal [relative enrichment] |
| --- | --- |
| CTATTC | 0.423 |
| AACACT | 0.324 |
| AGCACA | 0.277 |
| GCAAAC | 0.376 |
| ATATAG | 0.231 |
| ACAGAT | 0.325 |
| ACTCTG | 0.394 |
| ACCAAT | 0.297 |
| GTAACA | 0.311 |
| AGCCTT | 0.351 |
| ATAAAG | 0.295 |
| AAGCGT | 0.342 |
| AACCAG | 0.382 |
| GCAATA | 0.37 |
| AATCCC | 0.452 |
| CTTACG | 0.579 |
| TATCTC | 0.531 |
| CTAACA | 0.376 |
| ATATCA | 0.285 |
| ATCTAG | 0.559 |
| GAATCA | 0.552 |
| ATCTCT | 0.485 |
| CCCATT | 0.378 |
| CATATA | 0.261 |
| ATTACC | 0.418 |
| AATCGC | 0.406 |

| Sequence | binding signal [relative enrichment] |
| --- | --- |
| CTCACA | 0.358 |
| CCTTTT | 0.486 |
| AATAGC | 0.349 |
| AAGTTC | 0.33 |
| AGTAAC | 0.341 |
| AAAACG | 0.293 |
| CCACTT | 0.6 |
| AACGCA | 0.299 |
| CTACTG | 0.62 |
| AAACAG | 0.495 |
| GTTTGA | 0.342 |
| AACCCC | 0.411 |
| CATTAG | 0.407 |
| ATTCTC | 0.416 |
| CTTATA | 0.265 |
| ATCTAA | 0.397 |
| AACCGC | 0.458 |
| ACCTCA | 0.455 |
| CTCGTT | 0.356 |
| TAGAAA | 0.294 |
| AGCAAA | 0.434 |
| AATGTC | 0.314 |
| TAGATA | 0.349 |
| ACATTA | 0.277 |
| GTACAC | 0.467 |
| ATTGTA | 0.324 |

| Sequence | binding signal [relative enrichment] |
| --- | --- |
| CAACTC | 0.262 |
| ACACAA | 0.35 |
| CATCAC | 0.536 |
| CTGCAA | 0.304 |
| CGACAA | 0.388 |
| ATTTCC | 0.389 |
| GCTATA | 0.243 |
| TCTTCA | 0.58 |
| ATAGAG | 0.433 |
| CAGTTA | 0.307 |
| ACTCCT | 0.417 |
| CATTGA | 0.325 |
| CAAGAA | 0.359 |
| TGACAA | 0.337 |
| TACAGC | 0.344 |
| ACAGTC | 0.418 |
| AAGTTG | 0.237 |
| CTACTA | 0.483 |
| ACGAAA | 0.388 |
| CATTGG | 0.413 |
| TAACTA | 0.345 |
| TCTAAC | 0.304 |
| ACAACG | 0.242 |
| GGAATA | 0.423 |
| GGTTAA | 0.292 |
| TCAACA | 0.333 |

| Sequence | binding signal [relative enrichment] |
| --- | --- |
| TCTCAT | 0.37 |
| TAGCAA | 0.292 |
| AAGTAA | 0.451 |
| AACATC | 0.392 |
| GCACAA | 0.291 |
| AGGTAA | 0.427 |
| TTGCAC | 0.349 |
| ATGATG | 0.505 |
| CCTTTA | 0.295 |
| ATCAGC | 0.434 |
| AAAACT | 0.264 |
| ACAAAG | 0.306 |
| ACAATG | 0.338 |
| ATTCAA | 0.335 |
| CAAGTA | 0.449 |
| TTCTAG | 0.58 |
| ATTAGG | 0.356 |
| GTATAC | 0.34 |
| ATAATA | 0.285 |
| TCAACT | 0.324 |
